From US20260151501A1, “ANTIBODY-DRUG CONJUGATE COMPRISING ANTI-CLAUDIN-18.2 ANTIBODY, AND THERAPEUTIC USE THEREOF FOR CANCER” (ABTIS CO., LTD., priority 2022, published 2026)

B1: Antibody-A: anti-claudin18.2 antibody with heavy chain of SEQ ID NO: 16 and light chain of SEQ ID NO: 17 (antibody)
heavy: QVQLVESGGGVVQPGRSLRLSCAASGFSLTTYGVHWVRQAPGKGLEWVAVIWAGGSTNYNSALMSRFTISRDNSKNTLYLQMNSLRAEDTAVYYCARAAYYGNGLDYWGQGTMVTVSS[… human IgG1 constant region …]
light: DIVMTQSPLSLPVTPGEPASISCKSSQTLLNSGNQKNYLTWYLQKPGQSPQLLIYWASTGESGVPDRFSGSGSGTDFTLKISRVEAEDVGVYYCQNAYFYPFTFGGGTKVEIKRTVAAPSVFIFPPSDEQLKSGTASVVCLLNNFYPREAKVQWKVDNALQSGNSQESVTEQDSKDSTYSLSSTLTLSKADYEKHKVYACEVTHQGLSSPVTKSFNRGEC
modifications: heavy chain of Claudin18.2 antibody; light chain of Claudin18.2 antibody
B2: ADC-A (conjugate)
heavy: B1 heavy
light: B1 light

What was measured:
PATU8988S cell line = experiment: Cell-based ELISA binding to PATU8988S cells; details: PATU8988S (CLDN18.2+)
Protocol: (§1) OD value measurement through ELISA was performed by measuring the absorbance at 450 nm using a UV-Vis spectrometer.
Four types of cell lines (MIA PaCa-2˜CLDN18.2, PATU8988S, parental MIA PaCa-2 (CLDN18.2-), and SNU601) were prepared. At this time, MIA PaCa-2˜CLDN18.2 and PATU8988S are CLDN18.2-positive pancreatic cancer cell lines. MIA PaCa-2 (CLDN18.2-) is a CLDN18.2-negative pancreatic cancer cell line. SNU601 is a CLDN18.2-positive gastric cancer cell line.
The prepared cell lines were cultured in DMEM containing 10% FBS and 1% penicillin/streptomycin (MIA PaCa-2˜CLDN18.2, MIA PaCa-2 (CLDN18.2-)), RPMI1640 containing 10% FBS and 1% penicillin/streptomycin (SNU601), and DMEM containing 5% FBS, 5% serum, 1% penicillin/streptomycin, and 2 mM L-glutamine (PATU8988S) in an incubator under the conditions of 37° C. and 5% CO2.
The prepared cell lines were plated on 96-well plates for culture, and then treated with each of antibody-A, ADC-A, antibody-B, and ADC-B. Thereafter, cell-based ELISA was performed, and OD values were measured.
The measured results were used for a regression analysis in GraphPad PRISM® 9.0 software to calculate EC50 and Bmax. The cell binding affinity of antibody-A, ADC-A, antibody-B, and ADC-B to each cell line was evaluated based on the calculated values.

SNU601 cell line = experiment: Cytotoxicity (CellTiter-Glo cell viability), SNU601; type: cell-based; details: SNU601 (CLDN18.2+), gastric cancer
Protocol: To measure cell viability in cytotoxicity experiments, the measurement of luminescence using GloMax® Discover was used, and the measurement method was according to the equipment manual.
Four types of cell lines (MIA PaCa-2˜CLDN18.2, PATU8988S, parental MIA PaCa-2 (CLDN18.2-), SNU601, NUGC-4, and AGS) were prepared. At this time, MIA PaCa-2˜CLDN18.2 and PATU8988S are CLDN18.2-positive pancreatic cancer cell lines. MIA PaCa-2 (CLDN18.2-) is a CLDN18.2-negative pancreatic cancer cell line. SNU601 and NUGC-4 are CLDN18.2-positive gastric cancer cell lines. AGS is a CLDN18.2-negative gastric cancer cell line.
The prepared cell lines were cultured in DMEM containing 10% FBS and 1% penicillin/streptomycin (MIA PaCa-2˜CLDN18.2, MIA PaCa-2 (CLDN18.2-)), RPMI1640 containing 10% FBS and 1% penicillin/streptomycin (SNU601, NUGC-4, and AGS), and DMEM containing 5% FBS, 5% horse serum, 1% penicillin/streptomycin, and […] L-glutamine (PATU8988S) in an incubator under the conditions of 37° C. and 5% CO2. […]
Changes in cell viability according to treatment of each test substance were measured using the same method as the CellTiter-Glo manual.
The measured results were used for a regression analysis in GraphPad PRISM® 9.0 software to calculate IC50. The cytotoxicity of each test substance was evaluated based on the calculated values.

[1] = target: T1, claudin18.2 protein (CLDN18.2) (Homo sapiens, UniProt P56856); experiment: Indirect ELISA binding to CLDN18.2 VLP; details: CLDN18.2 (antigen protein) VLP, OD at 450 nm
T1 construct: purchased CUSABIO TECHNOLOGY LLC CSB-MP005498HU (A5)
Protocol: as §1
To confirm the binding strength to an antigen, a CLDN18.2˜VLP (virus-like particle) expressing the claudin18.2 protein (CLDN18.2) was prepared. At this time, CLDN18.2˜VLP is CSB-MP005498HU (A5) from CUSABIO TECHNOLOGY LLC.
After a 96-well plate was coated with the CLDN18.2 VLP for ELISA and treated with each of antibody-A and ADC-A, indirect ELISA was performed to measure OD values.
The measured results were used for a regression analysis in GraphPad PRISM® 9.0 software to calculate EC50 and Bmax. The antigen binding affinity of antibody-A, ADC-A, antibody-B, and ADC-B were evaluated based on the calculated values.

[2] = Pharmacokinetics after single intravenous administration; type: in vivo; details: rats
Protocol: Centrifugation in the pretreatment process was performed under the conditions of 13,000 rpm and 4° C. for 10 minutes.
After a single administration of ADC-A at doses of 1 and 3 mg/kg to rats (purchased from SAMTAKO Bio Korea CO., LTD.) through the tail vein, blood was collected for a certain period of time and analyzed to compare and evaluate the pharmacokinetic profile. The supernatant was obtained from the plasma using a centrifuge, and the concentration of ADC-A in the plasma was analyzed using the ELISA method. Parameters were calculated by performing a pharmacokinetic analysis in a non-compartmental manner using Phoenix® WinNonlin® software.

Molecule	Bmax (PATU8988S cell line)	IC50 (SNU601 cell line) [nM]	Bmax [1]	half-life (t1/2), total ADC ([2]; single intravenous 1 mg/kg) [h]	half-life (t1/2), total antibodies (total Ab) ([2]; single intravenous 1 mg/kg) [h]	total clearance, total ADC ([2]; single intravenous 1 mg/kg) [mL/h/kg]	total clearance, total antibodies (total Ab) ([2]; single intravenous 1 mg/kg) [mL/h/kg]	half-life (t1/2), total ADC ([2]; single intravenous 3 mg/kg) [h]	half-life (t1/2), total antibodies (total Ab) ([2]; single intravenous 3 mg/kg) [h]	total clearance, total ADC ([2]; single intravenous 3 mg/kg) [mL/h/kg]	total clearance, total antibodies (total Ab) ([2]; single intravenous 3 mg/kg) [mL/h/kg]
B1	1.743	> 66.7	3.229								
B2				125	108	3.0	2.9	118	113	2.5	2.8
